Measurements reported in the RNAGym collection of RNA variant scans (doi:10.1073/pnas.2313332121).
This sample is rich in variants without activity.

B1: TPR 5TU (parent)
chain: GGAUCUUCUCGAUCUAACAAAAAAGACAAAUCUGCCACAAAGCUUGAGAGCAUCUUCGGAUGCAGAGGCGGCAGCCUUCGGUGGCGCGAUAGCGCCAACGUUCUCAACUAUGACACGCAAAACGCGUGCUCCGUUGAAUGGAGUUUAUCAUG

Variants of: B1
Assay: polymerase ribozyme fitness, log enrichment relative to wild type (log ratio); higher = more active; in vitro selection for triplet polymerase activity
In short: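 For each subunit of a heterodimeric triplet polymerase ribozyme, a mutant library was built by PCR and transcribed, then taken through a single in vitro selection round in triplicate. Selection involved annealing to a biotinylated primer, the partner subunit and triplets, incubation frozen at −7 °C, gel excision of extended constructs, capture on streptavidin beads and RT-PCR. Genotypes were retained after Illumina sequencing of inputs and outputs only with ≥10 input reads and ≥1 read in each output. Fitness is defined as the logarithm of a genotype's enrichment relative to wild-type enrichment, using inverse-variance-weighted averages across replicates, with the logarithm taken to base 2.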

Variant	polymerase ribozyme fitness (log ratio)
A16U A37U C76G U82G A89G A91G G143U	≤ -4.2
A16U G50A A52C U53G U56A C75U C99G C103A	≤ -4.2
A17G C99U	-0.271
A17G A30C A52G U53A C79A C93G A120U G128A	≤ -4.2
A16U A28C A52G C87A U102G A150C	≤ -4.2
A16C C51U C75G G94A A107U	≤ -4.2
A17C A23U G59U G84A U90C U151A	≤ -4.2
U15G C87U G88C A120G	≤ -4.2
A17C C35U G74A C76A U78G	≤ -4.2
A17U A20C A47C A49U C93A C103A U104C	≤ -4.2
A17G G58A	1.26
A17C C57A C114U	-1.86
A16G A19U C57A C87A G126U	≤ -4.2
A16U G42C G68A C72G C87G G126A	≤ -4.2
A16U U90A A107U C149G	≤ -4.2
A16G A22U U55G C75G A147C	≤ -4.2
A17G C51A C79U	≤ -4.2
A17C G65C G71A G94A	≤ -4.2
A17C A30U A52U	≤ -4.2
A17C C36U G42C C76G G94U U134C U146C	≤ -4.2
A16G C43A C57G G59U G70U G88U C99U A107G	≤ -4.2

Variant	polymerase ribozyme fitness (log ratio)
A17G A113C	-2.83
A17G G92A A120G A122G C125A	≤ -4.2
A16G C149G	-3.97
A16U C116A	-0.257
A17G A21C U44A A91C C108U	≤ -4.2
A17G A21U A26U A29U U53C C93G C96A C116G	≤ -4.2
A16G A23U C72A C87A C93U G126A	≤ -4.2
A17G C27A	≤ -4.2
A17C A28C G68U C85U G126A	≤ -4.2
A16G U33A A150G	≤ -4.2
A17G G62A G86A A89U G112A G143A	≤ -4.2
A16U U31G G59C C87G U135C G136C U144A	≤ -4.2
A17G A40U U55A U56A C103A A119G U134A	≤ -4.2
A16U A40G U44A G71C C85A G141A G143U	≤ -4.2
A16U A20U G88A C95A	≤ -4.2
A17G A29G C36G C38G G84U A137U U145A	≤ -4.2
A16U C93U G100U A115G	≤ -4.2
A16U A22U C69A C85U G117U C118A G141A	≤ -4.2
A17C A21U A29U U53G A73G G94A	≤ -4.2
A16G A20C C69G C149G	-4.02
A16C A21U U55A C87U U111C	≤ -4.2

Variant	polymerase ribozyme fitness (log ratio)
A16G C76G G88C	≤ -4.2
A16C A66C G80A	≤ -4.2
A16G G42U C43U A64C C87U	≤ -4.2
A16U C75A C93U A97U A122G G141C	≤ -4.2
A16G A22G C27A A49C C57U G59C C85U C118A C129U	≤ -4.2
A17C A23U C35A G86U G94A C99A U109G U151C	≤ -4.2
A16U U45G G94A A107G C118A A150G	≤ -4.2
A16C G25C A64U C85A A89C G128A	≤ -4.2
A16U A20G C85A A138U	≤ -4.2
A16C A21C C57A G88U C103G	≤ -4.2
U15G C85U C87A	≤ -4.2
A17C A41C C87U C108A	≤ -4.2
A17G A26C U55A C79U G80C A91U A107G	≤ -4.2
A17C U45A G84U C132A G136U	≤ -4.2
A16G A91U	≤ -4.2
A16C A20C A41C C85G C116U	-3.81
A16U C69U G88C C108G	≤ -4.2
A16C C18A C35G U55A C57A U77G A106G A110G G140U A150G	≤ -4.2
A17G A30U A73G C76U C85G U101G C123A G124U	≤ -4.2
A16U U31A C57A G88A	≤ -4.2
A17G A39C A40C A73G G94C U134G	≤ -4.2

Variant	polymerase ribozyme fitness (log ratio)
A16U A26G A52U C54U C99U	≤ -4.2
A16U A20U A23C A47G C99G U127G A138C A147C U148A C149A	≤ -4.2
A16G A20G C35A G88C	≤ -4.2
A16U C79U G86A A91U	≤ -4.2
A17C C54A G71C G84A C93G U139A	≤ -4.2
A16U C38U A60C G80U A97G	≤ -4.2
A16C A21C C57A G88U C103G U130G	≤ -4.2
A17C A28U U44C A52U G94U A97G A142G	≤ -4.2
A16G U144G	0.162
A16U A30C A52G C96G C103G U144G	≤ -4.2
A16C G126A	-0.0283
A17C U102A	-0.663
A16C G94C C105U A115G G152U	≤ -4.2
A16C C36U C54U A107U G140C	≤ -4.2
A17U A21U G50C C54G C57A A60G C87G G100C G140A U151G	≤ -4.2
A16C A24G A73C A121G	≤ -4.2
A16G C35G U53A C57U G84U C105G A150U	≤ -4.2
U15G G42A A47G U135G	≤ -4.2
A17C C38A A47G G92C	-0.622
A16U A22U G117A C132A U151G	≤ -4.2
